By IC50 is meant the dose at which the fit gives 50% viability; a fit beyond the top or the lowest dose is shown as a bound at that dose. The AUC spans the tested range (256-fold, ending at the top dose) of the same fit; it is 1 without any effect and falls as sensitivity rises. For part of these data: The top dose, if marked as inferred, comes from the curve model; the source does not state it. For part of these data: An entry number marks a drug with two screens in the source, which often give different values.
How the values were obtained:
Experiment in all cases: Viability of human cancer cell lines after 72 h of drug (GDSC screen)
AUY922 = compound: CCNC(=O)c1noc(-c2cc(C(C)C)c(O)cc2O)c1-c1ccc(CN2CCOCC2)cc1 [AUY922]; conditions: top dose 0.256 µM; top dose inferred
Protocol: (§1)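 Human cancer cell lines in 384-well plates, medium with 10% serum, drug for 72 h over a 256-fold dose range (nine 2-fold or five 4-fold steps up to the top dose). Adherent lines were fixed and stained with the nucleic acid dye Syto60, suspension lines read with resazurin; signal relative to control wells, capped at 0 and 100%. One two-parameter sigmoid per drug and line, fitted in a mixed model over all curves with the slope shared within a line.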

KIN001-270 = compound: Cc1ccc(Nc2cc(-c3cccc(N4C(=O)c5ccccc5C4=O)c3)ncn2)cc1NS(C)(=O)=O [KIN001-270]; conditions: top dose 20 µM; top dose inferred
Protocol: as §1

T0901317 = compound: O=S(=O)(c1ccccc1)N(CC(F)(F)F)c1ccc(C(O)(C(F)(F)F)C(F)(F)F)cc1 [T0901317]; conditions: top dose 10.24 µM; top dose inferred
Protocol: as §1

GNF-2 = compound: NC(=O)c1cccc(-c2cc(Nc3ccc(OC(F)(F)F)cc3)ncn2)c1 [GNF-2]; conditions: top dose 1.28 µM; top dose inferred
Protocol: as §1

Gemcitabine = compound: Nc1ccn([C@@H]2O[C@H](CO)[C@@H](O)C2(F)F)c(=O)n1 [Gemcitabine]; conditions: top dose 1.024 µM
Protocol: as §1

MP470 = compound: S=C(NCc1ccc2c(c1)OCO2)N1CCN(c2ncnc3c2oc2ccccc23)CC1 [MP470]; conditions: top dose 20 µM; top dose inferred
Protocol: as §1

Nilotinib = compound: Cc1cn(-c2cc(NC(=O)c3ccc(C)c(Nc4nccc(-c5cccnc5)n4)c3)cc(C(F)(F)F)c2)cn1 [Nilotinib]; conditions: top dose 2 µM
Protocol: as §1

LFM-A13 = compound: C/C(O)=C(\C#N)C(=O)Nc1cc(Br)ccc1Br [LFM-A13]; conditions: top dose 16 µM; top dose inferred
Protocol: as §1

TW-37 = compound: CC(C)c1ccccc1Cc1cc(C(=O)Nc2ccc(S(=O)(=O)c3ccccc3C(C)(C)C)cc2)c(O)c(O)c1O [TW-37]; conditions: top dose 5 µM
Protocol: as §1

Bicalutamide = compound: CC(O)(CS(=O)(=O)c1ccc(F)cc1)C(=O)Nc1ccc(C#N)c(C(F)(F)F)c1 [Bicalutamide]; conditions: top dose inferred
Protocol: as §1

[1] = top dose 1.024 µM, screen: GDSC drug entry 150
[2] = top dose 10 µM, screen: GDSC drug entry 1502

Cell Line | AUC (AUY922) | IC50 (AUY922) [µM] | AUC (KIN001-270) | IC50 (KIN001-270) [µM] | AUC (T0901317) | IC50 (T0901317) [µM] | AUC (GNF-2) | IC50 (GNF-2) [µM] | AUC (Gemcitabine) | IC50 (Gemcitabine) [µM] | AUC (MP470) | IC50 (MP470) [µM] | AUC (Nilotinib) | IC50 (Nilotinib) [µM] | AUC (LFM-A13) | IC50 (LFM-A13) [µM] | AUC (TW-37) | IC50 (TW-37) [µM] | AUC (Bicalutamide; [1]) | IC50 (Bicalutamide; [1]) [µM] | AUC (Bicalutamide; [2]) | IC50 (Bicalutamide; [2]) [µM]
LB2241-RCC (kidney, adherent) | 0.602 | 0.0317 | 0.974 | > 20 | 0.98 | > 10.2 | 0.889 | > 1.28 | 0.042 | < 0.004 | 0.873 | > 20 | 0.748 | 0.708 | 0.971 | > 16 | 0.419 | 0.183 | 0.984 | > 1.02 | 0.973 | > 10
LB2518-MEL (melanoma, adherent) | 0.686 | 0.0546 | 0.977 | > 20 | 0.978 | > 10.2 | 0.985 | > 1.28 | 0.423 | 0.0389 | 0.783 | 8.9 | 0.986 | > 2 | 0.977 | > 16 | 0.451 | 0.227 | 0.985 | > 1.02 | 0.986 | > 10
LC4-1 (lymphoblastic leukaemia, suspension) | 0.682 | 0.0547 | 0.949 | > 20 | 0.771 | 4.35 | 0.98 | > 1.28 | 0.607 | 0.13 | 0.881 | > 20 | 0.972 | > 2 | 0.929 | > 16 | 0.881 | > 5 | 0.984 | > 1.02 | 0.979 | > 10
LOUCY (T-cell lymphoblastic leukaemia, suspension) | 0.435 | 0.011 | 0.936 | > 20 | 0.978 | > 10.2 | 0.992 | > 1.28 | 0.302 | 0.02 | 0.971 | > 20 | 0.989 | > 2 | 0.972 | > 16 | 0.482 | 0.282 | 0.992 | > 1.02 | 0.988 | > 10
LP-1 (myeloma, suspension) | 0.957 | > 0.256 | 0.934 | > 20 | 0.933 | > 10.2 | 0.993 | > 1.28 | 0.976 | > 1.02 | 0.733 | 5 | 0.993 | > 2 | 0.992 | > 16 | 0.731 | 1.23 | 0.993 | > 1.02 | 0.993 | > 10
LS-513 (large intestine, adherent) | 0.689 | 0.0553 | 0.98 | > 20 | 0.977 | > 10.2 | 0.983 | > 1.28 | 0.803 | 0.533 | 0.96 | > 20 | 0.982 | > 2 | 0.985 | > 16 | 0.623 | 0.69 | 0.985 | > 1.02 | 0.984 | > 10
